Variants at the floor of the assay are shown more often than the library holds them.
B1: TPR 5TU (parent)
chain: GGAUCUUCUCGAUCUAACAAAAAAGACAAAUCUGCCACAAAGCUUGAGAGCAUCUUCGGAUGCAGAGGCGGCAGCCUUCGGUGGCGCGAUAGCGCCAACGUUCUCAACUAUGACACGCAAAACGCGUGCUCCGUUGAAUGGAGUUUAUCAUG

Variants of: B1
Experiment: polymerase ribozyme fitness, log enrichment relative to wild type (log ratio); higher = more active; in vitro selection for triplet polymerase activity
Outline: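 The heterodimeric triplet polymerase ribozyme's subunits were each mutagenized into PCR-built libraries and transcribed. Every library was selected once, in triplicate, by annealing with a biotinylated primer, the partner subunit and triplets, incubating frozen at −7 °C, gel-excising extended constructs, capturing on streptavidin beads and running RT-PCR. Input and output libraries were Illumina-sequenced, with genotypes kept only at ≥10 input reads and ≥1 read per output. Fitness, from inverse-variance-weighted replicate averages, is the base-2 logarithm of genotype enrichment over wild-type enrichment.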

Polymerase ribozyme fitness (log ratio), ≤ -4.2:
C10G C35U G86U C99G
C10G C35U U55C C75U G86U U151G
C10G C36G G65A C87A G112A C116G A138U U145C
C10G C36U A52G G94C
C10G C36U U56A A91U G94C C99U G126U
C10G C38A C85A C118U C149U
C10G C38U A41C A60G G74A
C10G C38U C51U U56A G80A G94U A113U G126A
C10G C38U C69A A107U
C10G C51G G65C A98U
C10G C51U G92A G124C
C10G C54U U55A C79G C93U A98G C116G A122U
C10G C57G G92C A113C G133A
C10G C69G G83C
C10G C85G
C10G C85G A98U
C10G C93G C132G
C10G G11C A66U
C10G G11C G68U A137U
C10G G11U U13G A40G
C10G G11U U15C G84A G88U
C10G G25C A40G C75U G84U U148A
C10G G25U A52G C85U C149G
C10G G25U U55A G88A A106G U130A A150G
C10G G42A C96G U111G C116G G140C
C10G G42U C63U C95A C123G
C10G G50A C57U G65A C69G G74U C79G G88U A142C
C10G G59A A91G G100A C131A U135G
C10G G68A G94U C96A C125G
C10G G68C A73G
C10G G71C C87U U102G G112C C116A G124U
C10G G83C U90G A91G
C10G G88C C96G
C10G G92U C116U
C10G G94A A115C U139A
C10G U13A A37C U44A C57G G88A A91C U102G C132G U135A
C10G U13G A16C U56A G92C C105A C114U
C10G U13G A17U A23U A29G A52G G59U C87A A97U
C10G U13G C14U U33A A66C U134G
C10G U31A G62A C75U A91C G92A C96G A122C C125A
C10G U33A C69A C96G
C10G U33C G83A U90G
C10G U44G A49C A52C A64C G74C U104G A122G G141A
C10G U44G C93A U134G G141U G152U
C10G U44G U56G C57U A66C C87U A106G A142U
C10G U45A G46A G83C C87G C96A A107U C116A C123U U144C
C10G U53A C57U G86C A106G C108G A113G U127G
C10G U55A C69G C93U C103G C116A
C10G U55G C103A
C10G U56A A89U C99U G112C U145G
C10G U56A C57U C69U C95A C99U C108U A121U A147G
C10G U61G A89C U134C
C10G U77A C93U U144G
C10G U82C C96U A98G U104G C116A U134A
C10U A12C A41G G50C C93G C103U C123A U127C
C10U A12C G34A G92C A121C
C10U A12G A39G G70C G92C U135G U145G U148A
C10U A12U A26G C35U
C10U A12U G42A G67C G92U A120U G128A
C10U A16C A17C G70A A89G G94C C132U
C10U A16C A22C U44G G83A A138G
C10U A16C G68A U77A
C10U A16G A52C C57A C85G G124A
C10U A16U A21G A73G A91U
C10U A16U U44G G50C C79G A97U A120C
C10U A16U U55A G83C U104G
C10U A17C A21G C54A C76G G86U U144G
C10U A17G A23C A24C A26G U31G A39U U44A C54G C57G G86U A97U A142C
C10U A17U C35U A60G G68A G80A C96U A98G
C10U A19G A23C G94A C96U A107C C114U C118U
C10U A19G A52G G71C C93A
C10U A19U A21U C32G G42A G80C A137U
C10U A19U A26C C27A C76G G81C U148C
C10U A19U A37C U45A U56A G92A
C10U A20C G88C C108A
C10U A21U A41U G42A C76U G80A C85U A97C G133C G141A U146G C149U
C10U A21U C76G C85G C93A A98G
C10U A21U G50A G71A C76G A89C C96G A113G A119U U127C
C10U A22C C35G G59C A106C
C10U A22G A49G A142C
C10U A22G C38A G48U G71A C87G G141A
C10U A22G G94C
C10U A22U C32G C85A G86A A121U U127C
